Test results as given in PubChem BioAssay AID504832 (National Center for Advancing Translational Sciences (NCATS), 2011).
About 18,000 (5.8%) of roughly 310,000 compounds were called active. The inconclusive results got no clear call from the source; some entries with a clear call stand among them for comparison. Calls come from the whole dose curve; as a rule, active = well fitted inhibition curve with a large enough effect; inconclusive = small, poorly fitted or top-dose-only effect, or another doubt; inactive = no such curve, though single readings can be large or run the other way. Potencies of inconclusive entries are left out as doubtful fits.

Experiment: Primary qHTS for delayed death inhibitors of the malarial parasite plastid, 48 hour incubation
Conditions: P. falciparum luciferase growth in erythrocytes; series mostly up to 28.7 µM
How it was run: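 Growth was read as firefly luciferase luminescence after a 48 h, 37 C, 5% CO2 exposure of compounds to reporter-bearing P. falciparum cultures (0.1% parasitemia, 2% hematocrit final) in Albumax-supplemented RPMI 1640.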
Potency is the fitted concentration of half-maximal effect; tags give direction and shape of the fitted curve.

SMILES | Potency
Cc1ccc(S(=O)(=O)N2CCC(C(=O)NCCCN3CCOCC3)CC2)cc1C | inconclusive [inhibitor, single point]
CCN(CC(=O)NC(=O)NCc1ccccc1)CC(=O)Nc1cc(Cl)ccc1C | inconclusive [inhibitor, single point]
COCCN(C(=O)Cc1ccc(OC)c(OC)c1)c1nc(-c2cc(OC)ccc2OC)cs1 | inconclusive [inhibitor, partial curve, poor fit]
COc1ccc(/C=N/Nc2cc(C)nc3c(C)cccc23)cc1 | inconclusive [inhibitor, full curve, poor fit]
N#Cc1c(-c2ccncc2)c2c([nH]c1=O)-c1ccccc1OC2 | inactive
CNC(=O)C(C#N)(Cc1cc(C(C)=O)ccc1OC)Cc1cc(C(C)=O)ccc1OC | inactive
Cc1ccccc1-n1nc2c(c1NC(=O)c1cc3ccccc3o1)CS(=O)(=O)C2 | inconclusive [inhibitor, single point]
Cc1ccc(N(Cc2ccccc2)C(=O)c2cccc(S(=O)(=O)N3CC(C)OC(C)C3)c2)cc1 (stereo not given) | active: 10.4 µM
Cc1ccc2c(c1)CCCN2C(=O)c1cccs1 | inconclusive [inhibitor, partial curve, poor fit]
CCOC(=O)CC1C(=O)NCCN1S(=O)(=O)c1ccc(NC(C)=O)cc1 (stereo not given) | inactive
CCC(C)n1c(SC(C)C#N)nc2ccccc2c1=O (stereo not given) | inconclusive [inhibitor, partial curve, poor fit]
O=[N+]([O-])c1cccc2c(N3CCCC3)ccnc12 | inconclusive [inhibitor, partial curve]
O=C(CN1C2=NCCCN2c2ccccc21)c1ccc([N+](=O)[O-])cc1 | active: 1.85 µM
CC(C)CCn1nnnc1C(c1ccc(N(C)C)cc1)N1CCN(C(=O)c2ccco2)CC1 (stereo not given) | inconclusive [inhibitor, full curve]
O=C(Nc1ccc(N2CCOCC2)c2nonc12)C1CCCC1 | inactive
CCc1ccccc1N(CC(=O)NC1CCCCC1)C(=O)CNC(=O)c1ccco1 | inactive
Cc1cc(NC(=O)c2c(C)noc2C)no1 | inactive
COc1ccc2oc(C(=O)OCC(=O)N3CC(C)OC(C)C3)c(C)c2c1 (stereo not given) | inactive
COc1ccc(CCNC(=O)CC2SC(=NCCc3ccccc3)NC2=O)cc1 (stereo not given) | inactive
Cc1[nH]c2ccccc2c1/C=N/Nc1nc2ccccc2[nH]1 | inconclusive [inhibitor, full curve, poor fit]
CSc1cc(-c2ccc(Cl)cc2)c(C(=O)NN)s1 | inconclusive [inhibitor, single point]
O=C1CC(c2ccccc2)CC2=C1C=Nc1ccccc1N2 (stereo not given) | inconclusive [inhibitor, single point]
COc1cc(/C=C/C(=O)O)ccc1OCc1ccccc1C#N | inactive

SMILES | Potency
CC1CCN(S(=O)(=O)c2ccc3c(c2)N(CC(=O)NCCCN2C(C)CCCC2C)C(=O)CO3)CC1 (stereo not given) | inactive
Cc1cc(C)cc(Nc2c(F)c(F)c(F)c(F)c2C(=O)O)c1 | inactive
NC(=O)CC(NC(=O)Cc1ccc(Br)cc1)c1ccc(NCCc2ccccc2F)c([N+](=O)[O-])c1 (stereo not given) | inconclusive [inhibitor, partial curve]
Oc1ccc(-c2nnc(Nc3cccc(O)c3)c3ccccc23)cc1 | inconclusive [inhibitor, partial curve, poor fit]
COc1ccccc1N1C(=O)CC1(C#N)c1ccc(OCc2ccccc2)cc1 (stereo not given) | inconclusive [inhibitor, single point]
CCOC(=O)c1sc(N)c(C(=O)OCC)c1COC(=O)C1CC(=O)N(Cc2ccco2)C1 (stereo not given) | inconclusive [inhibitor, single point]
C[C@@H](Oc1ccccc1)c1nnn(Cc2ccccc2)c1-c1c([C@@H](C)Oc2ccccc2)nnn1Cc1ccccc1 | inconclusive [inhibitor, partial curve, poor fit]
Cc1cc([N+](=O)[O-])ccc1NC(=O)Cc1ccc(F)cc1 | inconclusive [inhibitor, single point]
COc1ccc(/C(C)=N/NS(=O)(=O)c2ccccc2)c(OC)c1 | inconclusive [inhibitor, full curve, poor fit]
Cc1cc(NC(=O)C(C)SCC(=O)Nc2ccccc2N2CCCC2)no1 (stereo not given) | inconclusive [inhibitor, single point]
Cc1ccccc1-n1c(SCc2c(C)noc2C)nnc1-c1ccncc1 | inconclusive [inhibitor, single point]
COc1ccc(OC)c(N2Cc3cc(C)c(C)cc3C2)c1 | active: 2.94 µM
COc1ccc(C(C)=O)cc1CSc1nc2cc(C(=O)O)ccc2c(=O)n1Cc1ccccc1 | inactive
N/C(=N\N=C\c1ccc(Cl)cc1)N/N=C/c1ccc(Cl)cc1 | active: 0.757 µM
COc1ccc(S(=O)(=O)N2CCCC(C(=O)NCCC3=CCCCC3)C2)cc1 (stereo not given) | inconclusive [inhibitor, single point]
CCN1C(=O)C(CC(=O)Nc2ccc(OC)cc2)N(CCc2ccc(OC)cc2)C1=S (stereo not given) | inconclusive [inhibitor, single point]
Cn1c(SCC(=O)NNC(=O)Cc2ccccc2)nnc1-c1ccccc1 | inactive
COc1ccc(C(O)P(=O)(OCC(C)C)c2ccc(N(C)C)cc2)c(OC)c1 (stereo not given) | inconclusive [inhibitor, partial curve, poor fit]
CCOC(=O)c1ccc(NC(=O)NCc2ccccc2)cc1 | inactive
COC(=O)c1ccccc1NC(=O)C1CCN(S(=O)(=O)c2cc(OC)ccc2OC)CC1 | inconclusive [inhibitor, single point]
COc1cc([C@@H]2c3cc4c(cc3[C@@H](OC)[C@H]3COC(=O)[C@H]23)OCO4)cc(OC)c1O | active: 10.4 µM
O=C(CN1C(=O)NC(c2ccccc2)(c2ccccc2)C1=O)NC1CCCCC1 | inactive
